This passage reports binding signal results from article PMC7819943, “Rice protein-binding microarrays: a tool to detect cis-acting elements near promoter regions in rice”.

This is one part of the list.

The target in this test is T1, OsWOX13 (Oryza sativa, UniProt Q5QMM3 1-267).
T1 sequence: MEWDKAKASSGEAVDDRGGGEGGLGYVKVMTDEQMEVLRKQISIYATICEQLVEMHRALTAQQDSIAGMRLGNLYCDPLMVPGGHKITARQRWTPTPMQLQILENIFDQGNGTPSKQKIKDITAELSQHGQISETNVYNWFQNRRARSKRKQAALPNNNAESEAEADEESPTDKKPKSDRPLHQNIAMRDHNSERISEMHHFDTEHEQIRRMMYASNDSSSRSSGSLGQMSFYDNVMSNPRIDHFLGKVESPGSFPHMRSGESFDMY
Kind of test: protein-binding microarray (RPBM); PBS, 2% BSA, 51.3 ng/ul salmon testes DNA, 50 uM zinc acetate, 200 nM TF, 25 C, 1 h; high values mean tight binding. The following applies: protein: recombinant; tags: N-terminal polyhistidine and DsRed monomer fusion (pET32a); label: CyDye5-dUTP incorporated in the synthesized complementary strand; 3' TTTTT single-stranded linker to array surface; dsDNA, one strand shown. Put shortly: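 An Axon 4000B scanner gave the binding signal as per-feature fluorescence intensity in arbitrary units. This followed washing of a custom Agilent array that had been incubated for 1 h at 25 °C with 200 nM protein in PBS, 2% BSA, salmon testes DNA and 50 µM zinc acetate. The proteins were transcription factors fused at the N-terminus to polyhistidine and DsRed, expressed in E. coli BL21-CodonPlus and purified on Ni–NTA.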
As to “TACTAAATGTACAATTTGCAGGTCAATGAACGCTGCACATCGGAGTCACCTAGTGCAG”, the binding signal was 3610 fluorescence intensity (a.u.).
In the case of “AACTCAATCATGCGATTAGTTAATTATTGGCAAATATATACGGAGTCACCTAGTGCAG”, the binding signal was 17500 fluorescence intensity (a.u.).
On to “ATGATTTTGATTTTGTGCTCTGCTCTGCCTTTTGCTCCTACGGAGTCACCTAGTGCAG”, for which the binding signal is 16400 fluorescence intensity (a.u.).
With “CAAATCATGGCGCAATTAGGCTTAAAAGATTCGTCTCACACGGAGTCACCTAGTGCAG” the figure was 4730 fluorescence intensity (a.u.); with “GAATAATTGCTCTTGTGCTAAGAAAATATATTTTATCCTTCGGAGTCACCTAGTGCAG”, 11300 fluorescence intensity (a.u.).
“TCCGTATAATTCCGATTAATTGTCCATATTCTAATTAATTCGGAGTCACCTAGTGCAG”: the binding signal is 15700 fluorescence intensity (a.u.).
With “TGCTGAGAAATTAATTGAAACATTATGACAGTTATAGTTACGGAGTCACCTAGTGCAG”, the binding signal is 13700 fluorescence intensity (a.u.).
On to “ATTTTGATTGGTTGAGAACTGAGCGGCCCTGTAGGCTTTCCGGAGTCACCTAGTGCAG”, for which the binding signal was 41000 fluorescence intensity (a.u.).
Under “TAGTAATTTATTTAGGAAAGCAACCGACTTATGGCGAAGACGGAGTCACCTAGTGCAG” stands 3420 fluorescence intensity (a.u.); under “CTTTCTTAATTGCTACTTCCTAGTTGTCTGCCTTTCTTCTCGGAGTCACCTAGTGCAG”, 28800 fluorescence intensity (a.u.).
With “CACATGTGATTGACAAATCCTAAATTACGAGTGGCAAAATCGGAGTCACCTAGTGCAG” the figure was 31500 fluorescence intensity (a.u.); with “CCTAATTACTCCATGATTTGATAATATGACGCTACAGTAACGGAGTCACCTAGTGCAG”, 25000 fluorescence intensity (a.u.).
On to “GACAGTAATTAGTAATATTACCAAGGTTCACAATCCCGTTCGGAGTCACCTAGTGCAG”, for which the binding signal is 24500 fluorescence intensity (a.u.).
As for “AGCCTTTTGATCAATTTACTTCCTCCTCCTTCTCCTTTATCGGAGTCACCTAGTGCAG”, the binding signal was 16100 fluorescence intensity (a.u.).
On to “TTTCCGGTATTGCCATAATTAAACTTGACGGAAAGATGAGCGGAGTCACCTAGTGCAG”, for which the binding signal is 3170 fluorescence intensity (a.u.).
Turning to “ACAGATTGCAACAAGATTGTATCACTAAACCACATGTTTCCGGAGTCACCTAGTGCAG”, the binding signal is 12100 fluorescence intensity (a.u.).
As for “CATTCCATTCATGACGCCATTAATTTAGCTATTTGAGTCACGGAGTCACCTAGTGCAG”, the binding signal is 6290 fluorescence intensity (a.u.).
“ACTATAAACAATCAACTAATCATCATTAAGAAATTACAGCCGGAGTCACCTAGTGCAG”: the binding signal is 14300 fluorescence intensity (a.u.).
With “TGTTGATTATTTTACTGTAATCCCTGTGTACTTCTTGTCTCGGAGTCACCTAGTGCAG” the figure was 43000 fluorescence intensity (a.u.); with “GAGAATTGCCCATTCAATTCGTCAGTTATGTAAAACTCATCGGAGTCACCTAGTGCAG”, 3680 fluorescence intensity (a.u.).
Take “CCTCCTAATAACGTGCTAATTACGACACGTGTTAACCATACGGAGTCACCTAGTGCAG”: the binding signal is 16400 fluorescence intensity (a.u.).
For the sequence “TGAGGACAGCTAATTGACAGTGGTTTCCTCCGCTTATCTCCGGAGTCACCTAGTGCAG”, the binding signal was 33800 fluorescence intensity (a.u.).
With “TATCTCTAATTTAGTTAATTTAACTTGTTGATCGATCGCTCGGAGTCACCTAGTGCAG” the figure was 21700 fluorescence intensity (a.u.).
For the sequence “ATCTGTCTGTCTGTCTGTCTGTTCTGTTGTATCCTTTCTTCGGAGTCACCTAGTGCAG”, the binding signal was 10600 fluorescence intensity (a.u.).
In the case of “ACATGGACTCTGATTAATAATTAATCGAAAATTGTGCAAGCGGAGTCACCTAGTGCAG”, the binding signal is 17100 fluorescence intensity (a.u.).
As for “ACAAAATTATTAAGCCTGATTAATCCATTATTGGTAAATGCGGAGTCACCTAGTGCAG”, the binding signal was 31700 fluorescence intensity (a.u.).
Take “TCAAATATTTAAATAGTTAAATTTTAAAATATGTGCGCATCGGAGTCACCTAGTGCAG”: the binding signal is 3370 fluorescence intensity (a.u.).
For “GGAGTTAATTTGCTTTGCTTGTGCAAAATCTTACTGTGGGCGGAGTCACCTAGTGCAG”, the binding signal is 34400 fluorescence intensity (a.u.).
With “CAAATTTGAGCACCCTCTCATGTCACTCACGTGAGTTGACCGGAGTCACCTAGTGCAG” the figure was 3220 fluorescence intensity (a.u.); with “TGATTGAACAATCAATTTAGACTAAACGAACGATCATGCTCGGAGTCACCTAGTGCAG”, 45700 fluorescence intensity (a.u.); with “GCTAGCTTTATTGATCATTAAACATTAAACATTGTTACATCGGAGTCACCTAGTGCAG”, 4380 fluorescence intensity (a.u.).
In the case of “CTATGTAAATTAATGGTATTAGGATGATAAACTTATTTTGCGGAGTCACCTAGTGCAG”, the binding signal was 11700 fluorescence intensity (a.u.).
For the sequence “AGCTGGGATGGTGACGAGGATTGATTCCCATCGGTGATCCCGGAGTCACCTAGTGCAG”, the binding signal is 3340 fluorescence intensity (a.u.).
Take “GCGCGTGCCATCAATTAATGGGCCGGGACTAGGAGTGGGCCGGAGTCACCTAGTGCAG”: the binding signal was 6190 fluorescence intensity (a.u.).
Under “TACTACGTAATTGACTAGAGATCATGCTAGTGGCATCTTGCGGAGTCACCTAGTGCAG” stands 39100 fluorescence intensity (a.u.).
Regarding “CCTGAGTTAATTAATAGCCCGAGGCAGGGTTTGGCTGTGTCGGAGTCACCTAGTGCAG”, the binding signal is 20600 fluorescence intensity (a.u.).
Turning to “CCCTCTTAATTAATAAAGCAAACATATCAGCTACTATATTCGGAGTCACCTAGTGCAG”, the binding signal was 3700 fluorescence intensity (a.u.).
Under “ACACTATGATTATAATATATTTACATGTGTGAATTGTTTACGGAGTCACCTAGTGCAG” stands 19900 fluorescence intensity (a.u.); under “TGAAATTTCTCCACAAGGCTTGATTGAACATTGCAGCCTCCGGAGTCACCTAGTGCAG”, 20500 fluorescence intensity (a.u.); under “CCTAAATGACATTAAGTGGAAGTACTGTAATAATTCTATTCGGAGTCACCTAGTGCAG”, 15400 fluorescence intensity (a.u.).
Turning to “TATTCAATATGAATCTTGATTTGTTACATATTTTGAGTGGCGGAGTCACCTAGTGCAG”, the binding signal was 4250 fluorescence intensity (a.u.).
In the case of “ACATTGATAGAATCGGGAGTGCATTTGCACAGCTTTACCACGGAGTCACCTAGTGCAG”, the binding signal was 21000 fluorescence intensity (a.u.).
